The results in this text go back to ChEMBL document CHEMBL5308541, “MAIP: An Open-Source Tool to Enrich High-Throughput Screening Output and Identify Novel, Druglike Molecules with Antimalarial Activity” (ACS Med Chem Lett, 2023).

Broadly, the % Inhibition is the drop in the measured response relative to a control, in per cent.

Among all 150,000 compounds or so, about 540 (0.36%) showed an effect of 50% or more. The list shows a part of the results.

The test system of this assay is Plasmodium falciparum. Nature of the assay: Primary screen in NF54 nanoGlo assay, in single point, at 2uM, 72h; a lower Z score goes with more inhibition. Particulars: timepoint 72 hour. The assay is classed as functional, Erythrocyte.
As for `CN1CCC(N2CCC(NC(=O)c3ccc(S(=O)(=O)N(C)C4CCCCC4)cc3)CC2)CC1`, the “% Inhibition” value is on record as 40% and the Z score was -6.98.
The like results for `COc1ccc2nccc(O[C@H]3CCN(C)C3)c2c1` were, in that order, 8% and -1.49.
For `O=C([C@@H]1CCCN1c1ncnc2sccc12)N1CCCN(CC(F)F)CC1` the same measures were 1% and -0.2.
The like results for `Cc1cc(C(=O)Cn2nnc(C3CC3)n2)c(C)[nH]1` were, in that order, -2% and 0.38.
With `c1cc(-c2ccn[nH]2)cc(-c2cnn3cccnc23)c1`, the “% Inhibition” value is reported as -7% and the Z score was determined as 1.18.
Turning to `Cn1cnnc1-c1cccc(NC2CCN(C3CCCCC3)CC2)c1`, the “% Inhibition” value is recorded as -3% and the Z score is 0.5.
For `Cc1ccc([C@@H](C)CCN2CCC(N3CCC(C(=O)N4CCCC4)CC3)CC2)o1` the same measures were 3% and -0.52.
For `c1cnc(N2CCCC2)c(Nc2nnc(-c3ccncc3)o2)c1` the same measures were -7% and 1.24.
As for `CCc1c(C(=O)N(C)CCCN2CCCCCC2)[nH]c2ccccc12`, the “% Inhibition” value is recorded as -12% and the Z score was 2.12.
As to `CC(C)Nc1cc(N2CCC(N3CCN(C)CC3)C(O)C2)ncn1` (stereo not given), the “% Inhibition” value was -5% and the Z score is given as 1.17.
The like results for `OC1CN(C2CCOCC2)CC1N1CCN(c2ccncc2)CC1` (stereo not given) were, in that order, -6% and 0.86.
As for `CCCCN(C)C[C@@H](C)NC(=O)CCCN1CCN(c2ccccc2)CC1`, the “% Inhibition” value is -5% and the Z score is on record as 1.09.
As to `C[C@@H](CC#N)N(C)C(=O)Nc1ccc2nc(Cc3ccccc3)oc2c1`, the “% Inhibition” value was -15% and the Z score is listed as 2.91.
For `Cc1nc2ccc(C(=O)N(C)CCCc3c(C)n[nH]c3C)cc2s1` the same measures were -3% and 0.56.
Turning to `N#CCCCOc1cccc(CNCc2nc3ccccc3[nH]2)c1`, the “% Inhibition” value is given as -9% and the Z score stood at 1.29.
The like results for `CN1C[C@@H]2CN(c3cc4c(nn3)CCN(CC(O)CN(C)C3CC3)C4)C[C@@H]2C1` (stereo not given in full) were, in that order, 0% and 0.04.
As to `Cc1nc2ccc(NC(=O)N[C@H]3CCN(CC4CCCC4)C3)cc2o1`, the “% Inhibition” value turned out to be 7% and the Z score was -1.05.
The like results for `Cc1cc(C)n([C@H]2CCN(C(=O)NC3(CN4CCOCC4)CCCC3)C2)n1` were, in that order, -9% and 1.63.
Turning to `CC(C)CN1CCC(OC2C[C@H]3CC[C@@H](C2)N3C(=O)c2ccc(C(C)C)cc2)CC1` (stereo not given in full), the “% Inhibition” value was 1% and the Z score is listed as -0.21.
Consider `CC(NC(=O)C1CCCN1C1CCN(CC(F)(F)F)CC1)c1ccc2c(c1)CCCC2` (stereo not given), for which the “% Inhibition” value is given as -5% and the Z score came to 1.06.
The like results for `CN1CCC(N2CCC[C@H](NC(=O)c3ccccc3N3CCCC3)C2)CC1` were, in that order, -1% and 0.29.
The like results for `Cc1cccc(N2CCC(N3CCC(NC(=O)c4ccncc4)C(O)C3)CC2)c1` (stereo not given) were, in that order, -16% and 2.86.
For `CCOC(=O)NC1CCCN(C(CN2C(=O)c3ccccc3C2=O)C(=O)OC)C1` (stereo not given) the same measures were 6% and -1.33.
`Cc1cc(C[C@H](C)NS(=O)(=O)NCc2ccccc2)n[nH]1`: the “% Inhibition” value turned out to be 1% and the Z score is listed as -0.1.
For the compound `Cc1nn(CCC(=O)N(C)Cc2nccn2Cc2ccccc2)c(C)c1C`, the “% Inhibition” value is recorded as 7% and the Z score was -1.19.
The like results for `Cn1c(-c2ccccc2)c(-c2nc(-c3ccccc3)c(-c3ccccc3)[nH]2)c2ccccc21` were, in that order, -16% and 3.5.
The like results for `COCCn1cc(CN[C@H](c2ccccc2)C(C)(C)C(=O)O)cn1` were, in that order, -14% and 2.15.
The like results for `O=C(Cc1cc2ccccc2[nH]c1=O)N[C@H](CO)Cc1ccc(O)cc1` were, in that order, -7% and 1.45.
On to `Cc1ccn2ncnc2c1NC(=O)NC1CC(CCO)C1` (stereo not given), for which the “% Inhibition” value was determined as 5% and the Z score is listed as -0.91.
`O=C1COc2ccc(Nc3nc(-c4ccccc4)c4ccccc4n3)cc2N1`: the “% Inhibition” value is given as -8% and the Z score is given as 1.18.
The like results for `COc1cncc(-c2cccc([C@H](C)N3CCCC3)c2)c1` were, in that order, 3% and -0.46.
For `CN1CC[C@@H](CNCc2ccc3cn[nH]c3c2)[C@@H]1c1cccnc1` the same measures were -4% and 0.56.
For `CC(C)c1nc(-c2ccc(N3CCN(C(=O)c4cc(-c5ccccc5)n[nH]4)CC3)nc2)no1` the same measures were 2% and -0.36.
On to `COc1cccc2cc(C(=O)N(CCN(C)C)c3nc4ccc(OC(F)(F)F)cc4s3)oc12`, for which the “% Inhibition” value amounted to 2% and the Z score was -0.44.
On to `CN1CCN(CCOc2ccccc2CN2CC3CCC(C2)NC3)CC1` (stereo not given), for which the “% Inhibition” value was -1% and the Z score was determined as 0.22.
For `Nc1nccc(-c2ccc(C(=O)NC[C@H](O)CN3CCCCCC3)cc2)n1`, the “% Inhibition” value is on record as -6% and the Z score is recorded as 1.03.
As for `CCN(CC1CCN(C2CCN(C)CC2)CC1)C[C@@H](C)Cc1ccc2c(c1)OCO2`, the “% Inhibition” value was 21% and the Z score is given as -3.69.
Consider `COC1CCN(c2nc(CN3CCN(c4ccccc4)C[C@@H]3C)nc3ccc(Cl)cc23)CC1`, for which the “% Inhibition” value is -4% and the Z score is on record as 0.76.
As to `CO[C@@]1(C(=O)N2CCC(c3ccnc4ccccc34)CC2)CCOC1`, the “% Inhibition” value was determined as 9% and the Z score is reported as -1.92.
For `CCCCN(Cc1ccc(F)cc1)C(=O)[C@@H]1CC2(CCNCC2)CN1C` the same measures were 1% and -0.13.
